Assay results taken from the supplement of paper PMC3334620.
In all, about 33,000 sequences were measured (“E-score (-0.5 to 0.5)”: median about -0.012, highest 2% from about 0.29 on). This is one part of the list.

Molecular target: T1, Ybr033w (UniProt P38073)
T1 sequence: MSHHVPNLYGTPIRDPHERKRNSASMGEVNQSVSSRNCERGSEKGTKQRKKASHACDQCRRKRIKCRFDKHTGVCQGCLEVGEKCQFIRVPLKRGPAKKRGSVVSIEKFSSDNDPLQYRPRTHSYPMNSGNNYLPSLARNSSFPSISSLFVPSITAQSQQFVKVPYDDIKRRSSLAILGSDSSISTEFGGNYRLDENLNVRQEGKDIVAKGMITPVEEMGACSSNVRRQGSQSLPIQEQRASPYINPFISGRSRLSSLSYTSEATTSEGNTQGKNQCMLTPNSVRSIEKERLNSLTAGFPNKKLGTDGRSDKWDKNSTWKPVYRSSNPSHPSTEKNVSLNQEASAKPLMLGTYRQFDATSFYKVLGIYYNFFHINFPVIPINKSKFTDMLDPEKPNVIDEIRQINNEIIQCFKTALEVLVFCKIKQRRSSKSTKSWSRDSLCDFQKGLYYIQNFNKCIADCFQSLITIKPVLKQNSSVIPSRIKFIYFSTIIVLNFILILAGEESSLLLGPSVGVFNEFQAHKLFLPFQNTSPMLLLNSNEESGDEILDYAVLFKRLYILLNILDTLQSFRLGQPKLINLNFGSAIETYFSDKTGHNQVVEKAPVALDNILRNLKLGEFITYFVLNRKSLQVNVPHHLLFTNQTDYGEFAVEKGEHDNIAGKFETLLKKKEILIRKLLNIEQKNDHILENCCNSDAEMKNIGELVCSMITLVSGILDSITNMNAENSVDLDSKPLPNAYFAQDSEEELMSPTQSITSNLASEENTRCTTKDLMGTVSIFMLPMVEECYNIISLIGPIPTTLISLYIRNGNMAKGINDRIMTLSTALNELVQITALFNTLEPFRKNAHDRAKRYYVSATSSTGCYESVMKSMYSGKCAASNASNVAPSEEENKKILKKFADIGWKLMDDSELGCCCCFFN
Test: PBM E-score (8-mer binding enrichment) (E-score (-0.5 to 0.5)); higher = stronger / more preferred TF binding; most listed sequences are background and not binding sites
Settings: protein concentration: 200 nM; construct: GST-full length
How it was run: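 The E-score, a modified Wilcoxon-Mann-Whitney statistic, was computed by the Universal PBM Analysis Suite for every ungapped eight-base word pooled with its reverse complement. Scans behind it were normalised with masliner after bound GST-tagged yeast transcription factors were detected with fluorescent anti-GST. The proteins, at about 100-200 nM, had been applied to universal all-10-mer Agilent arrays made double-stranded by primer extension.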

| Sequence | PBM E-score |
| --- | --- |
| GAGGATTA | 0.132 |
| GCCGACAC | -0.193 |
| GGCAGTAA | -0.0561 |
| GCAGCACA | 0.0148 |
| CGGGGGTA | -0.214 |
| AGTGTGCC | -0.0819 |
| CCCGAAAA | 0.134 |
| CACGCTTA | -0.00386 |
| AGGCTAAT | 0.106 |
| AATGCTGT | 0.0336 |
| GCCTGCCA | -0.171 |
| CATGTACC | -0.215 |
| CCAAAACC | 0.145 |
| AGCCAGCC | -0.241 |
| GTCAACAA | -0.00832 |
| AAATAGTA | 0.248 |
| ACTGTCTG | -0.113 |
| CTATCGAG | 0.101 |
| GGTCACCA | -0.232 |
| CCGTACTC | -0.00366 |
| GCCGCCTA | -0.207 |
| ACCAACAT | 0.241 |
| CTGTGTAC | 0.0882 |
| AGTTATCG | 0.156 |
| AAGCTAAT | 0.177 |

| Sequence | PBM E-score |
| --- | --- |
| CGTGGGGC | -0.32 |
| CCAGCGAA | -0.149 |
| CAGGTGAA | 0.0712 |
| CAGATCCA | 0.0778 |
| GATTTCAA | 0.174 |
| TGATAAAA | 0.299 |
| ATGATTAG | 0.0838 |
| GGCTACCA | -0.203 |
| AGCCACCT | -0.217 |
| ATAGGACG | -0.217 |
| CGTTACGA | 0.0624 |
| GCATGCGA | 0.122 |
| GCCGTGAC | -0.0789 |
| GGTTCTGA | -0.0472 |
| CCCCTCCC | -0.238 |
| AATCAAGA | 0.185 |
| TAAAAGTA | 0.194 |
| ATGGCCCA | -0.00322 |
| ACTGACCG | -0.244 |
| CATCTTGA | -0.0154 |
| CGTGACAA | -0.0475 |
| CTTCCCGA | 0.101 |
| GGAGATAC | -0.0648 |
| ATCTTGAG | -0.0511 |
| CAGGGCGA | -0.0411 |

| Sequence | PBM E-score |
| --- | --- |
| GGGACGAA | -0.19 |
| AACGCATT | 0.123 |
| ATCGACTC | -0.182 |
| AGTCATCA | -0.121 |
| AGCCCAAC | 0.0217 |
| CGTCGCAG | -0.0303 |
| ACGTAACC | 0.0248 |
| GGACATTA | 0.0609 |
| GGATGGTA | 0.129 |
| CCCGGTGA | -0.183 |
| CAATGATG | 0.0296 |
| AGTAAGTC | -0.022 |
| AATCCCGC | 0.106 |
| CCAATCTA | 0.0466 |
| CTATCTAC | 0.0222 |
| GCCTGACA | -0.312 |
| TGGAGAAA | 0.133 |
| TCTGTGCA | 0.0377 |
| TACCAACA | 0.22 |
| ACCGGAGC | -0.174 |
| AAGCAGGT | 0.0163 |
| CGGCATCC | -0.216 |
| CAACCTCG | 0.0191 |
| CGAATACG | -0.0836 |
| CGTATACC | -0.103 |

| Sequence | PBM E-score |
| --- | --- |
| TAGAGGGA | -0.179 |
| CTGTAAAC | 0.187 |
| ACGCCACA | 0.0472 |
| CTTCCCTC | -0.163 |
| ACCTCCCT | -0.113 |
| ACCACCTC | -0.00951 |
| TGGCCAAA | 0.00462 |
| CCCTACAA | -0.0961 |
| GGAGGGTA | -0.119 |
| CGCCAGTA | -0.0432 |
| GATTCGCC | -0.0869 |
| CAGTTTCC | 0.094 |
| AAGGTCCG | -0.193 |
| GATCGTAC | -0.25 |
| ACATCTCT | -0.0224 |
| CTAGCTTC | 0.0557 |
| AACATTTG | -0.0656 |
| GGCAAAAA | 0.133 |
| AAAACGCG | 0.0943 |
| AGTCGTCA | -0.066 |
| AATTTTGG | 0.104 |
| AAATAACC | 0.094 |
| TCGTATAA | 0.236 |
| CCAAAGAG | -0.0366 |
| GAGGTGAA | 0.0754 |

| Sequence | PBM E-score |
| --- | --- |
| ACGAGTAC | 0.128 |
| CCCACATC | -0.228 |
| CAACCGTG | -0.0804 |
| AAGGAATA | 0.219 |
| CGGCGGGA | -0.35 |
| CACGCCCA | -0.158 |
| ATACGCCA | 0.0161 |
| AGAGGAGG | -0.26 |
| GCATGTCA | -0.125 |
| GCTTCAAC | -0.153 |
| CGTCGAAA | 0.154 |
| GGCCGAAC | -0.238 |
| CCCTCCGG | -0.202 |
| ACTAAGAC | 0.026 |
| GTTCGCGA | 0.0447 |
| CTCGTCAA | -0.0138 |
| CTGTCCCA | -0.3 |
| GAGCCGCC | -0.236 |
| AGTTATAC | 0.088 |
| ACCGAGAC | -0.219 |
| GGTCAACC | -0.111 |
| CCTCAGCC | -0.2 |
| GAATCGTA | 0.0349 |
| AGCTTTAA | 0.106 |
| GAGAGCAA | -0.0432 |

| Sequence | PBM E-score |
| --- | --- |
| GCTAAACC | -0.162 |
| AGATTACA | 0.0886 |
| ATTGGACC | -0.129 |
| ACGTGCGA | -0.0447 |
| CTCACCAA | 0.179 |
| ATGGAATC | 0.198 |
| GCTGGCAC | -0.243 |
| CAGCACCC | -0.258 |
| ATCAAGAG | 0.212 |
| ATTTGTCC | 0.26 |
| AAGGACTG | -0.16 |
| GCCCTAAC | -0.0245 |
| GTTCCCGA | -0.0684 |
| TAGCTATA | 0.0277 |
| CTCATGGC | -0.197 |
| AACCGCAA | 0.127 |
| ACACAGTC | -0.0764 |
| CCGTCTAG | -0.124 |
| CCAAAGCC | -0.0563 |
| GTCTCTAA | -0.0774 |
| ACTACATA | 0.233 |
| CTAATCAC | 0.134 |
| CTTTCTCC | -0.103 |
| CTGATGCC | -0.0338 |
| CATTGATC | 0.236 |

| Sequence | PBM E-score |
| --- | --- |
| ATGTATAC | 0.229 |
| GACGAGCC | -0.0703 |
| CGGGCCTA | -0.216 |
| GAACTTTA | -0.0884 |
| CGGCCACA | -0.119 |
| ACGACCCA | -0.188 |
| GCATGCTA | -0.0885 |
| GTATACGA | 0.0267 |
| AATGAACA | 0.214 |
| CATCCGGG | -0.0657 |
| TTAAACAA | 0.226 |
| CAAAAGGC | 0.0553 |
| GGCACGCC | -0.414 |
| CATTTTCC | 0.223 |
| ACCACAGG | -0.164 |
| ATCCCGCC | -0.206 |
| ATCTCACG | -0.168 |
| ATCCTTAG | -0.0191 |
| AGATAGAT | 0.0433 |
| GGCTATAA | 0.00013 |
| GCAACAGA | 0.101 |
| AACCTCAT | 0.121 |
